This note sets out measurements from ChEMBL document CHEMBL4888484, “Replenishing the malaria drug discovery pipeline: Screening and hit evaluation of the MMV Hit Generation Library 1 (HGL1) against asexual blood stage Plasmodium falciparum ,using a nano luciferase reporter read-out” (2022).

Broadly, the % Inhibition is the drop in the measured response relative to a control, in per cent.

The whole screen tested about 150,000 compounds, of which about 540 (0.36%) showed an effect of 50% or more. The list shows a part of the results.

The subject of this test is Plasmodium falciparum. Put plainly: Primary screen in NF54 nanoGlo assay, in single point, at 2uM, 72h; a lower Z score goes with more inhibition. It is filed as functional, Erythrocyte. The settings on record: timepoint 72 hour.
For `NCCOc1ccc(CC(=O)N2C[C@@H]3CCC[C@@H](C3)C2)cc1`, the “% Inhibition” value was -16% and the Z score is recorded as 2.96.

As for `COCC1(C(=O)N2CC[C@@]3(CCCN(C4CCCC4)C3=O)C2)CCC1`, the “% Inhibition” value is on record as -5% and the Z score was 0.88.

With `Cc1ccoc1C(=O)N1CCN(C[C@H](O)COc2ccccc2)CC1`, the “% Inhibition” value was -8% and the Z score is reported as 1.46.

As to `COc1cccc(CNC(=O)Cn2c(=O)n(Cc3ccc(F)cc3)c(=O)c3nn(C)cc32)c1`, the “% Inhibition” value was -2% and the Z score was found to be 0.3.

Consider `Cc1cc(C(F)(F)F)nn1C[C@@H](C)CNC(=O)c1nc2ncccn2n1`, for which the “% Inhibition” value is on record as -44% and the Z score is recorded as 5.17.

For `CS(=O)(=O)N1CCN(CCC(=O)Nc2ccc3c(c2)CCC3)CC1`, the “% Inhibition” value is given as 9% and the Z score was -1.35.

Take `Cc1cc(S(=O)(=O)N(CC#N)C(C)C)c(C)s1`: the “% Inhibition” value was -5% and the Z score was 0.65.

For the molecule `COCCNc1c(-c2ccccc2)nc2sc(C(=O)NC3CCCC3)c(C)n12`, the “% Inhibition” value was -11% and the Z score turned out to be 1.1.

On to `CCCc1nc2c(C)cccn2c1NC(C)(C)CC(C)(C)C`, for which the “% Inhibition” value worked out at 6% and the Z score is reported as -0.63.

For the molecule `CCCN1CC[C@@H]2N(C(=O)c3cc(C)n(CC)c3C)CCC[C@@]2(CO)C1`, the “% Inhibition” value is on record as -4% and the Z score turned out to be 0.42.

Turning to `Cc1cc(CCNC(=O)c2ccc(Cl)cc2)on1`, the “% Inhibition” value is -10% and the Z score was determined as 1.6.

Turning to `CN(CC(=O)Nc1ccc2c(c1)OCO2)C1CCCCC1`, the “% Inhibition” value is 3% and the Z score was -0.32.

As for `Cn1nc(-c2ccccc2)c(CN(Cc2ccco2)C[C@H](O)COCc2ccccc2)c1Oc1ccccc1`, the “% Inhibition” value is -13% and the Z score is listed as 1.39.

Take `O=C1CCc2cc(S(=O)(=O)N3CCC(Cc4ccccc4)CC3)cc3c2N1CCC3`: the “% Inhibition” value was -18% and the Z score was 3.49.

In the case of `Cc1[nH]/c(=N\C(=O)c2csc(NCC(C)C)n2)sc1C`, the “% Inhibition” value was -3% and the Z score was found to be 0.41.

`CCN(C[C@H]1CCCO1)C(=O)c1cc(NS(=O)(=O)CC)cc2nc(-c3ccccc3)n(C)c12`: the “% Inhibition” value was -11% and the Z score came out at 1.26.

Regarding `Cc1ccc(S(=O)(=O)N(C)C[C@H](C)c2nnn[nH]2)s1`, the “% Inhibition” value is -10% and the Z score is on record as 0.81.

`COc1ccc2c(c1)C[C@H](NS(=O)(=O)Cc1ccccc1)CO2`: the “% Inhibition” value is -8% and the Z score worked out at 1.13.

For the molecule `C=CCCC(=O)Nc1ccc(O)cc1OC(F)(F)F`, the “% Inhibition” value amounted to 7% and the Z score is on record as -1.26.

For `CCOC1CC(CC(=O)N[C@H]2CO[C@@H]2c2ccccc2)C1` (stereo partly specified), the “% Inhibition” value is listed as -9% and the Z score turned out to be 1.04.

For the molecule `C[C@H](O)CN1CCN(Cc2cn3ccccc3c2C#N)CC1`, the “% Inhibition” value is recorded as -13% and the Z score is on record as 2.38.

With `CC[C@H]1CCN1C(=O)C1(CF)CCOCC1`, the “% Inhibition” value was -5% and the Z score worked out at 0.47.

Regarding `CN1CCN(CC(=O)N2CCC([C@@H](O)CCc3ccccc3)CC2)C1=O`, the “% Inhibition” value turned out to be 2% and the Z score is -0.32.

`Cc1ccc(Cc2nnn(CC(=O)N[C@@H](C)c3ccc(F)cc3)n2)cc1`: the “% Inhibition” value is reported as -10% and the Z score was 1.3.

For `CN(C(=O)c1cc(Br)cnc1C1CC1)c1nncs1`, the “% Inhibition” value is -18% and the Z score is on record as 1.82.

Take `CCCn1ncnc1[C@H](C)NC(=O)Nc1cc(NC(=O)CC)ccc1F`: the “% Inhibition” value is on record as -3% and the Z score is 0.6.

Regarding `CN(CC1(CO)CCC1)C(=O)c1cnc(C2CC2)nc1`, the “% Inhibition” value is listed as 19% and the Z score is -2.57.

As to `CC[C@H](C)NC(=O)CCCN1C(=O)CCn2nc(-c3cccn3C)cc21`, the “% Inhibition” value was -2% and the Z score came to 0.47.

On to `CC(C)(C)C(=O)NC1CCC(C(=O)N2CC[C@H](CCO)C2)CC1` (stereo partly specified), for which the “% Inhibition” value was -10% and the Z score stood at 1.12.

`CC[C@@H](CO)NS(=O)(=O)Cc1ccc(Br)cc1`: the “% Inhibition” value is listed as 5% and the Z score is -0.88.

In the case of `O=S(=O)(NCc1ccccn1)N1CCCCC1`, the “% Inhibition” value came out at 11% and the Z score is listed as -1.08.

`CC(C)Oc1cccc(C(=O)[C@H]2CCCN(Cc3cn(CC(N)=O)c4ccccc34)C2)c1`: the “% Inhibition” value was -13% and the Z score is on record as 1.22.

With `Cc1nc(CC(N)=NOCC(=O)Nc2ccc(F)c(Cl)c2)cs1`, the “% Inhibition” value is -11% and the Z score was determined as 1.34.

On to `CCO[C@@H](C)C(=O)N(C)Cc1cnc2ccccc2n1`, for which the “% Inhibition” value is -11% and the Z score is 1.39.

For the molecule `CC1CCN(C2CC(=O)N(c3ccc(N4C(=O)CC(N5CCC(C)CC5)C4=O)cc3)C2=O)CC1` (stereo unspecified), the “% Inhibition” value was -10% and the Z score was 1.37.

With `O=C(Nc1ccc(N2CCn3c(nc4ccccc43)C2)cc1)c1ccc(F)cc1`, the “% Inhibition” value was found to be 34% and the Z score is listed as -1.63.

Consider `CCC(CC)N(CCOC)C(=O)NC[C@@H](c1ccco1)N1CCCC1`, for which the “% Inhibition” value is listed as -10% and the Z score stood at 1.43.

Regarding `CCC1(C(=O)NC(C)C2CCN(Cc3ccccc3)C2)CCOCC1` (stereo unspecified), the “% Inhibition” value is -5% and the Z score was found to be 0.61.

Regarding `Cc1ccc(C2CC(c3cccc4ccccc34)n3ncnc3N2)cc1` (stereo unspecified), the “% Inhibition” value is reported as -11% and the Z score is given as 1.7.

Regarding `C=CCN1CC[C@@]2(CCC1=O)CN(Cc1cc3ccccc3o1)CCN2C`, the “% Inhibition” value amounted to 14% and the Z score is listed as -1.97.

`O=C(c1ccc2ncsc2c1)N1C[C@@H]2CC[C@H]1CN(Cc1ccccn1)C2`: the “% Inhibition” value is -11% and the Z score is reported as 1.69.

On to `Cn1c(N2CCC[C@H]2c2ccc3c(c2)OCCCO3)c(C#N)c(=O)n(C)c1=O`, for which the “% Inhibition” value amounted to 36% and the Z score is -0.95.

`CC(CN1CCOCC1)NC(=O)N1CCCC1Cc1ccc(F)cc1` (stereo unspecified): the “% Inhibition” value was 16% and the Z score is given as -2.08.

For the molecule `Cc1cc(OCC(=O)Nc2ccc(N3CCCCC3)cc2)no1`, the “% Inhibition” value is given as 30% and the Z score is -3.87.

`CO[C@H]1CN(C2CCN(C(=O)NC(C)C)CC2)[C@H]1c1ccncc1`: the “% Inhibition” value was -13% and the Z score was 1.66.

`O=c1cc(CN2CCc3ccccc32)nc2ccccn12`: the “% Inhibition” value is given as -13% and the Z score worked out at 1.19.

`O=C(Nc1ccccc1C(=O)N1CCC1)c1ccco1`: the “% Inhibition” value was -21% and the Z score is on record as 2.01.

For the molecule `N[C@@H]1C[C@@H]2CC(C(=O)NCc3ccnc(-c4ccccc4)c3)C[C@@H]21` (stereo partly specified), the “% Inhibition” value is reported as -17% and the Z score is recorded as 2.72.

With `C=CC(C)ONC(=O)NC(c1ccccc1)C1(CO)CCC1` (stereo unspecified), the “% Inhibition” value is -7% and the Z score came out at 0.92.

Consider `CC[C@H](CO)NC(=O)NC(C)c1ccc(Br)cn1` (stereo partly specified), for which the “% Inhibition” value was -4% and the Z score came out at 0.64.

In the case of `Cc1ccc(C)c(-n2cnc(=O)n2[C@H]2CCN(C3CC3)C2=O)c1`, the “% Inhibition” value stood at 31% and the Z score is recorded as -5.97.

Take `CN(CC(O)C(F)(F)F)C(=O)NC1CCN(CC2CCCC2)C1` (stereo unspecified): the “% Inhibition” value came out at 2% and the Z score was -0.2.

Consider `Cn1c(CC(=O)Nc2cc(C3CCOCC3)[nH]n2)nnc1-c1ccccc1`, for which the “% Inhibition” value came out at 0% and the Z score turned out to be 0.04.
